# PubChem BioAssay AID2546 (National Center for Advancing Translational Sciences (NCATS), 2010)
# The campaign covered roughly 310,000 compounds. About 11,000 (3.5%) were called active. This list was built around the results that the source calls inconclusive (neither active nor inactive); the mix of calls is not that of the screen. Calls follow the shape of the dose curve; as a rule, active = well fitted inhibition curve with a large enough effect; inconclusive = small, poorly fitted or top-dose-only effect, or effect the other way; inactive = flat fitted curve, though single readings scatter. Potencies of inconclusive entries are left out as doubtful fits.
# Test: VP16 counterscreen qHTS for inhibitors of ROR gamma transcriptional activity;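 also: Gal4-VP16 expression switched on by copper sulfate through the metallothionein promoter; nearly all actives have a fitted effect of over 50% in size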
# Settings: Drosophila S2 Gal4-VP16 UAS-luciferase, luminescence, 20 h; activity, negative = inhibition: at 53.6 µM (top of the series)
# % is scaled to controls: 0 for no effect and ±100 for the full control effect; potency is read from the fitted curve at half-maximal effect; tags tell the direction and shape of the fitted curve.
SMILES,Potency,"activity, negative = inhibition"
Cc1ccccc1-n1c(-c2csc3ccccc23)n[nH]c1=S,"inconclusive [inhibitor, partial curve]",
Cn1c(SCc2cccc([N+](=O)[O-])c2)nc2c(c1=O)SCC2,"inconclusive [inhibitor, single point]",
CCCNC(=O)c1nnsc1S(=O)(=O)c1ccc(Cl)cc1,active: 3.16 µM,
Oc1sc(C=Nc2ccc(F)cc2)c2ccccc12,"inconclusive [inhibitor, single point]",
O=[N+]([O-])c1c(NCCCO)cc(Sc2ccc(Cl)cc2)c2nonc12,active: 5.01 µM,
CN1CCN(C(c2ccc(Cl)cc2)c2cc(Cl)c3cccnc3c2O)CC1 (centres undefined),active: 1.41 µM,
N#CC(=C1CCCC1)c1nc(-c2cc3ccccc3oc2=O)cs1,"inconclusive [inhibitor, full curve]",
CCOc1ccc2nc(NC(=O)c3cc([N+](=O)[O-])ccc3N3CCOCC3)sc2c1,"inconclusive [inhibitor, single point]",
CC(=O)OCC(=O)[C@@]1(O)CCC2C3CC[C@H]4CC(O)CC[C@@]4(C)C3C(=O)C[C@]21C (some centres undefined),inactive,
COc1ccc(-c2noc(CCC(=O)NC3CCCCCC3)n2)cc1,inactive,
O=C(NC(=S)Nc1nc(-c2ccccc2)cs1)c1ccco1,"inconclusive [inhibitor, single point]",
CC(CN1CCOCC1)OC(=O)Cc1ccc(Cl)cc1 (centres undefined),"inconclusive [inhibitor, full curve, poor fit]",
CCOC(=O)C1=C(Cc2ccc(C)cc2)C(=O)c2ccccc2C1=O,"inconclusive [inhibitor, single point]",
COc1ccc(NC(=O)CN(c2ccc(C)cc2)S(=O)(=O)c2c(C)nn(C)c2C)cc1OC,"inconclusive [inhibitor, single point]",
S=c1[nH]nc(-c2ccc3ccccc3n2)n1-c1cc(Cl)cc(Cl)c1,active: 2.24 µM,
O=C1/C(=C\c2cccnc2)Sc2ccccc21,"inconclusive [inhibitor, single point]",
CN1CCN(c2ccc(NC(=O)c3ccc4ccccc4c3)cc2)CC1,"inconclusive [inhibitor, partial curve]",
Cc1cc(C(C)(C)C)oc1C(=O)N(CC(=O)NC1CCCC1)Cc1ccccc1Cl,"inconclusive [inhibitor, single point]",
COc1ccc2nc(NC(=O)Cc3cccs3)sc2c1,inactive,
c1ccc2c(c1)OCC(CNc1ncnc3sccc13)O2 (centres undefined),active: 0.501 µM,
COc1ccc(-c2cc(C(F)(F)F)nc(S(=O)(=O)CCCC(=O)Nc3cc(C)on3)n2)cc1OC,"inconclusive [inhibitor, single point]",
O=C(N/N=C/c1cccc(OC(=O)N2CCOCC2)c1)c1cccs1,active: 12.6 µM,
COCCOn1c(SCCOC)nc2ccccc2c1=O,inactive,
COc1ccc(NC(=S)N2CCC(c3ccc(C)cc3)C2)cc1 (centres undefined),"inconclusive [inhibitor, partial curve, poor fit]",
O=C(Cn1cc(/C=C\[N+](=O)[O-])c2ccccc21)Nc1ccccc1,"inconclusive [inhibitor, single point]",

SMILES,Potency,"activity, negative = inhibition"
Cc1[nH]nc2nc(SCC(=O)NCCC3=CCCCC3)n(-c3ccc(Br)cc3)c(=N)c12,"inconclusive [inhibitor, single point]",
COCCn1c(=O)c(-c2ccc(OC)cc2)nc2cnc(N3CCOCC3)nc21,inactive,
Cc1nc(SCc2ccccc2)c2ccsc2n1,"inconclusive [activator, partial curve]",
Cc1nccn1-c1ccc(C(F)(F)F)cc1[N+](=O)[O-],inactive,
N#C/C(=C\Nc1ccc(Cl)cc1)S(=O)(=O)c1ccccn1,inactive,
CC(OC(=O)c1cccc(S(=O)(=O)Nc2cccc(C(F)(F)F)c2)c1)C(=O)Nc1ccc2c(c1)OCCO2 (centres undefined),inactive,
Cc1cc(=O)n(Cc2ccc(OC(C)C)cc2)c(=S)[nH]1,"inconclusive [inhibitor, single point]",
CCOC(=O)c1c(-c2ccc(C)o2)csc1NC(=O)CN(C)CC(=O)Nc1ccc(C)cc1,"inconclusive [inhibitor, single point]",
Cc1ccnc(Nc2nc(-c3ccc(F)cc3)cs2)c1,"inconclusive [inhibitor, single point]",
Cc1c(-c2ccccc2)nc(N)c(C#N)c1-c1ccco1,"inconclusive [inhibitor, single point]",
NNc1nc2ccc(F)cc2s1,"inconclusive [inhibitor, single point]",
CN(c1cccc(NC(=O)CN(c2cccc(Cl)c2)S(=O)(=O)c2ccc(Cl)cc2)c1)S(C)(=O)=O,inactive,
Cn1c(=O)[nH]c(=O)c2c1nc(Br)n2CCSc1nc2ccccc2o1,inactive,
N#CCC(=N)N1CCN(c2ccccc2)CC1,"inconclusive [activator, partial curve]",
CCOc1ccccc1N=NC1C(=O)N(C(N)=S)N=C1C (centres undefined),active: 1 µM,
CCSC(=S)c1c(C)[nH]n(-c2ccccc2)c1=O,active: 1.12 µM,
O=S(=O)(Nc1cccc2cccnc12)c1ccc(Br)cc1,active: 1.26 µM,
COc1ccc(/C=C/C(=O)c2ccccc2)cc1COc1ccccc1F,"inconclusive [inhibitor, single point]",
COc1ccc(/C=C2\CCc3c2nc2ccccc2c3C(=O)O)cc1OC,active: 11.2 µM,
COc1ccc(C)cc1S(=O)(=O)n1cnc(C)c1,inactive,
CCn1c(C(C)NC(=O)c2ccc(Cl)cc2)n[nH]c1=S (centres undefined),,inactive: -2.84% [at 10 µM]
CCOC(=O)C1=C(N)OC2=C(C(=O)CC(C)(C)C2)C1c1ccc(CC)s1 (centres undefined),"inconclusive [activator, single point]",
Clc1ccccc1/C=N/NC1=Nc2cccc3cccc1c23,"inconclusive [inhibitor, partial curve, poor fit]",
CC(C)c1nnc(NC(=O)CS(=O)(=O)c2ccccc2)s1,inactive,
COc1cccc(C(=O)NNC(=S)NC2CCCCC2)c1,"inconclusive [inhibitor, partial curve]",

SMILES,Potency,"activity, negative = inhibition"
Cc1ccc(N/C=C(\C2OC(=O)c3ccccc32)[N+](=O)[O-])c(C)c1 (centres undefined),"inconclusive [inhibitor, single point]",
CCCCOC(=O)c1ccc(NC(=S)NC(=O)c2c(Cl)cnn2C)cc1,"inconclusive [inhibitor, single point]",
COc1ccc(NC(=O)CC2C(=O)N(Cc3ccco3)C(=S)N2C(C)C)cc1 (centres undefined),inactive,
N#C/C(=C(/O)COC(=O)COc1cccc(Br)c1)c1nc2ccccc2[nH]1,active: 12.6 µM,
c1ccc2nc(SCc3cn4ccccc4n3)cnc2c1,"inconclusive [activator, partial curve, poor fit]",
Cc1ccc(C(=O)COC(=O)c2ccc3c(c2)C(=O)N(c2cccc4ncccc24)C3=O)cc1,"inconclusive [inhibitor, single point]",
Cc1ccc(-c2cc(C(=O)Nc3sc4c(c3C(=O)NCc3ccco3)CCC4)[nH]n2)c(O)c1,"inconclusive [activator, single point]",
Cc1nn(Cc2ccccc2)c(C)c1/C=N/NC(=O)c1ccccc1O,active: 17.8 µM,
O=C(Nc1ccc2c(c1)OCO2)c1sc2cc(Cl)ccc2c1Cl,"inconclusive [inhibitor, single point]",
CC(=Nc1ccccc1)Nc1ccccc1,inactive,
COc1ccc(-c2nc(-c3ccccc3)no2)c(OC)c1,active: 4.47 µM,
COc1ccc(-n2c3c(cc(C(=O)NCC(=O)c4ccccc4)c2=O)C(=O)CC(C)(C)C3)cc1,inactive,
CCOC(=O)c1ccc(NC(=S)N(CCN2CCCCCC2)Cc2cccs2)cc1,"inconclusive [inhibitor, single point]",
NNc1ncnc2sc3c(c12)CCC3,active: 3.98 µM,
COc1ccc(CCC(=O)N/N=C\c2cccs2)cc1,"inconclusive [inhibitor, single point]",
CCOc1ccc(/C=C2\SC(=S)N(CCCC(=O)NCCCN3CCOCC3)C2=O)cc1,active: 0.891 µM,
COc1ccc(C(=O)NC(=S)Nc2ccc(Cl)cn2)cc1OC,active: 12.6 µM,
C=C(C)[C@@H]1CC[C@]2(C(=O)O)CC[C@]3(C)C(CCC4[C@@]5(C)CC[C@H](O)C(C)(C)C5CC[C@]43C)C12 (some centres undefined),inactive,
Cc1nn(CC(O)CN2c3ccccc3Sc3ccccc32)c(C)c1Br (centres undefined),"inconclusive [inhibitor, single point]",
COc1ccc(C(=O)CSC#N)cc1OC,"inconclusive [inhibitor, single point]",
CC1=C(C(=O)Nc2ccccc2)C(c2ccncc2)C(C#N)=C(SCC(=O)NC2CC2)N1 (centres undefined),inactive,
C=CCOc1c(CNc2nccs2)cccc1OCC,"inconclusive [inhibitor, single point]",
CC(C)c1ccc(C(=O)NC2=NCCS2)cc1,"inconclusive [inhibitor, single point]",
O=[N+]([O-])c1ccc(N/N=C2/CCCCC2c2ccccn2)c([N+](=O)[O-])c1 (centres undefined),"inconclusive [inhibitor, single point]",
